# Over roughly 110,000 compounds, “z-score” has its median near -0.1; the highest 2% begin near 2. The list shows a part of the results.
# Biological target: Metabotropic glutamate receptor 8 (Rattus norvegicus) (UniProt P70579)
# Assay: mGluR8 Gi/Go-coupled signaling modulation – cell-based, rat, thallium flux, HTS, primary screen (AID 488969)
# Settings: HEK293 rat mGluR8, GIRK (G protein-gated inwardly rectifying potassium channel) thallium flux, FluoZin2; at 10 µM; stronger effect = higher value; submaximal glutamate (EC20) added with thallium
# UniProt P70579, sequence (P70579 whole entry, looked up): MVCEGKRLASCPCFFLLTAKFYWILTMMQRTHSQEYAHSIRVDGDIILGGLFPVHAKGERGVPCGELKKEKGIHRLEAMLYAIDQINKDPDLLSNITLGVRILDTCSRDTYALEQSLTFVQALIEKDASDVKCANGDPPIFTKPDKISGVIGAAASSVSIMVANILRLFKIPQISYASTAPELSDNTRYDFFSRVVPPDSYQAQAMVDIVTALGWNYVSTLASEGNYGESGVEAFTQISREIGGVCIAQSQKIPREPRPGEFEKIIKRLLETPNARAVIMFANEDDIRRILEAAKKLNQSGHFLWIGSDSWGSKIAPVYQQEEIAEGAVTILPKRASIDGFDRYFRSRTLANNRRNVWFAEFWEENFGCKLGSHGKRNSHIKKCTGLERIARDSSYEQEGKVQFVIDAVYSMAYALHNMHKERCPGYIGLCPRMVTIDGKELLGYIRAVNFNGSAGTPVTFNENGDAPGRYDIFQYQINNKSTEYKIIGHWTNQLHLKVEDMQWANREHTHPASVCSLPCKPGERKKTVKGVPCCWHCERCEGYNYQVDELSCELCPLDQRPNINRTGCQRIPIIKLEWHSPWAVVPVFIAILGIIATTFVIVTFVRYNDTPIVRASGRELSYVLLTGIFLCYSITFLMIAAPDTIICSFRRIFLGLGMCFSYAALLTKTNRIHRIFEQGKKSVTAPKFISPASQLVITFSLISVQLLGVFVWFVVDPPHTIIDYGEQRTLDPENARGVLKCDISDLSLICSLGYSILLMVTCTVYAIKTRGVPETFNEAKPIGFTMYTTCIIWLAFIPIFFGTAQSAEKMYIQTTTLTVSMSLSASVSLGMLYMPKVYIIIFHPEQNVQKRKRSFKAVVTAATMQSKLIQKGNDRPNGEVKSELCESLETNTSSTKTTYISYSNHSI
row,Structure (SMILES),z-score
1,O=C(NCc1ccc(F)cc1)C1CCCN(S(=O)(=O)c2cccnc2)C1 (stereo not drawn),0.396
2,CCN(CC)c1ccc(/C=N/N2CCN(Cc3ccccc3)CC2)c(O)c1,0.00652
3,COc1ccc(CCNC(=S)Nc2ccccc2C)cc1,0.829
4,O=C1NC(c2cccnc2)C(C(=O)c2cccs2)C(O)(C(F)(F)F)N1 (stereo not drawn),0.215
5,C/C(=N\OCC(=O)N/N=C/c1ccccc1O)c1cccs1,0.855
6,O=C(Nc1ccc(Cl)c([N+](=O)[O-])c1)c1ccc(NCCCN2CCOCC2)c([N+](=O)[O-])c1,-0.0118
7,COc1ccc(-c2cc(CNC(=O)CN3CCN(C)CC3)on2)cc1,0.631
8,C=CCNC(=O)c1ccccc1NC(=O)c1cccc2ccccc12,-0.251
9,CCOc1ccc(C)cc1S(=O)(=O)Nc1ccc(Cl)cn1,-0.0631
10,CC1Cc2cccc3c(O)c(C(=O)c4nn[nH]n4)c(=O)n1c23 (stereo not drawn),0.029
11,COc1ccc(N2CCN(C(=O)CNC(=O)Cn3c(C)cc4ccccc4c3=O)CC2)cc1,-0.427
12,O=C(Nc1ccc(Cl)c(Cl)c1)N1CC=C(c2ccccc2)CC1,0.184
13,O=[N+]([O-])c1cccc(/C=N\N2CCN(Cc3ccccc3Cl)CC2)c1,-0.0536
14,Cc1ccc(-c2nc(C#N)c(NCc3cccc4c3OCO4)o2)cc1,-0.0194
15,C(=C/c1ccnc2nc(SC/C=C/c3ccccc3)nn12)/c1ccccc1,0.107
16,O=C(C1CCC(=O)N1Cc1ccccc1Cl)N1CCN(c2ccc(F)cc2)CC1 (stereo not drawn),0.184
17,CN1CCc2nc(SCc3ccc(Cl)cc3)c(C#N)c(-c3cccs3)c2C1,0.101
18,Cc1occc1C(=O)NNC(=O)c1ccccc1Br,0.0329
19,CCC(=O)NC(Nc1nc2ccc(C)cc2s1)(C(=O)OC)C(F)(F)F (stereo not drawn),0.168
20,COc1cc(NC(=O)Cn2c(=O)n(-c3cccc(C)c3)c(=O)c3c(C)c(C)sc32)cc(OC)c1,-0.208
21,Cc1cc(C)c(NC(=O)C(C)Sc2nc3ccc(N4C(=O)c5ccccc5C4=O)cc3s2)c(C)c1 (stereo not drawn),-1.42
22,CN1CCN(S(=O)(=O)c2ccc(NC(=O)c3ccc(F)cc3)cc2)CC1,0.931
23,O=C(Cn1ccc2ccccc2c1=O)NCCC(=O)N1CCN(C2CCCCC2)CC1,-0.0939
24,O=C(NCc1ccccn1)c1cc(-c2ccccc2)nc2ccccc12,-0.314
25,Cc1ccc(S(=O)(=O)N2CCN(c3ccc(C(=O)N4CCOCC4)cc3[N+](=O)[O-])CC2)cc1,0.647
26,O=C(CSc1nnc(-c2ccccc2Br)o1)N1CCN(C(=O)c2ccco2)CC1,-0.13
27,O=C(NNC(=O)c1ccccc1-n1cccc1)c1ccc(Cl)cc1Cl,0.632
28,CCOC(=O)C(NCc1ccccc1OC)(NC(=O)CC)C(F)(F)F (stereo not drawn),0.04
